Assay results as given in PubChem BioAssay AID1768 (National Center for Advancing Translational Sciences (NCATS), 2009).
The campaign covered roughly 270,000 compounds. About 620 (0.23%) were called active. Inconclusive results, whose numbers are uncertain, are shown with a selection of clear calls. Calls follow the shape of the dose curve; as a rule, active = well fitted inhibition curve with a large enough effect in the polarisation, with a control signal flat (not every such curve was filed as active); inconclusive = small, poorly fitted or top-dose-only effect, or effect the other way, or a change in a side signal; inactive = no such curve, though single readings can be large or run the other way; the % refers to the polarisation. Where the call is inconclusive, the potency comes from a doubtful curve fit. “Side channel” marks fits to a control or component signal instead of the main read-out.

Target: Menin (Homo sapiens) (UniProt O00255)
Chain of UniProt O00255 (O00255 whole entry, looked up): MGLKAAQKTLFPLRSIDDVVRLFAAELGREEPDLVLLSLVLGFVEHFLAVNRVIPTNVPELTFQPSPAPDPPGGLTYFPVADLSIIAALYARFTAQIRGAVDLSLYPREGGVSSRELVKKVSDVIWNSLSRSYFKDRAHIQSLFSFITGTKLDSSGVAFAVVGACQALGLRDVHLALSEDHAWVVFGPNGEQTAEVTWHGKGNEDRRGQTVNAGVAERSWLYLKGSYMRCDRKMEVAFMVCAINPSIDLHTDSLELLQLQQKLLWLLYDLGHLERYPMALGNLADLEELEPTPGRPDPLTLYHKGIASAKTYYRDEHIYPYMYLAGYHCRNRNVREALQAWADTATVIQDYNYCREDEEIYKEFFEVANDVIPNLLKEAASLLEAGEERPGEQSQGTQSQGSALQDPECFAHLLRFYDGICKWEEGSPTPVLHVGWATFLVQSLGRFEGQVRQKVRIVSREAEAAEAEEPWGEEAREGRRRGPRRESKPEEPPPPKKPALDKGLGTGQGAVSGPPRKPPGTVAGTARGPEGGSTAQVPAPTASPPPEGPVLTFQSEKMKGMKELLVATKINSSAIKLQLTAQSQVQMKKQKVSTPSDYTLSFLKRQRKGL
Assay: qHTS Assay for Inhibitors Targeting the Menin-MLL Interaction in MLL Related Leukemias: Competition With Texas Red Labeled MLL-derived Mutant Peptide; as to FP activity change, negative = inhibition: % of control where 0% means no effect
Conditions: fluorescence polarization; FP activity change, negative = inhibition: at 61.6 µM (top of the series)
Potency is read from the fitted curve at half-maximal effect; tags tell the direction and shape of the fitted curve or compound fluorescence and quenching.

| Compound | Potency | FP activity change, negative = inhibition |
| --- | --- | --- |
| Cc1ccc(C2C(C#N)=C(N)SC(N)=C2C#N)c(C)c1 | inconclusive: 3.98 µM [quencher, side channel, full curve] | – |
| Brc1ccc(C2Nc3cccc4cccc(c34)N2)o1 | inconclusive: 8.91 µM [quencher, side channel, partial curve] | – |
| Cc1cccc(-n2c(O)c(C=Nc3ccc4c(c3)OCO4)c3ccccc3c2=O)n1 | inconclusive: 25.1 µM [quencher, side channel, single point] | – |
| CN(C)c1nc(NC2CCC(NC(=O)c3ccc(F)c(F)c3)CC2)nc2ccccc12 (configuration not stated) | – | inactive: -11.7% |
| CCN(CC)c1ccc(/C=N/Nc2cccc(C)c2)c(O)c1 | inconclusive: 39.8 µM [quencher, side channel, single point] | – |
| CC(C)CC(NC(=O)OC(C)(C)C)c1cn([C@@H](CCCCNC(=O)OC(C)(C)C)C(=O)N2CCN(C(=O)OC(C)(C)C)CC2)nn1 (some centres not stated) | inconclusive: 2.51 µM [fluorescent, side channel, partial curve] | – |
| O=C(C1CC1)N(Cc1ccco1)c1nc(-c2ccccc2)cs1 | inconclusive: 12.6 µM [quencher, side channel, partial curve] | – |
| C=CCc1c(C)nc(C)nc1N/N=C/c1ccccc1O | – | inactive: -3.17% |
| C=CCc1cccc(/C=N/NC(=O)CN2CCN(Cc3ccccc3)CC2)c1O | – | inactive: -7.05% |
| Cc1nc2ccn(Cc3ccccc3)c(=O)c2cc1C(=O)N1CCN(c2ccccc2)CC1 | inconclusive: 20 µM [inhibitor, partial curve] | – |
| CCC(=O)[C@]12O[C@@]3(C4C(=O)OCCC41)N(CC)C(C)=C(C(=O)OC)C(c1ccccc1)N3C2=O (some centres not stated) | – | inactive: -20.1% [at 11.7 µM] |
| CC(=O)c1ccc(NC(=S)NC(C)CCc2ccccc2)cc1 (configuration not stated) | inconclusive: 3.55 µM [quencher, side channel, partial curve] | – |
| CC(NC(=O)c1ccccc1)c1nc2ccccc2n1Cc1ccccc1F (configuration not stated) | inconclusive: 0.891 µM [fluorescent, side channel, full curve, poor fit] | – |
| Cc1ccc([N+](=O)[O-])cc1-c1[nH]c(-c2ccc(O)c(O)c2)nc1-c1ccccc1 | inconclusive: 17.8 µM [quencher, side channel, partial curve] | – |
| COc1ccc(O)c(/C=N/NC(=S)Nc2cccc(S(=O)(=O)N(C)C)c2)c1 | inconclusive: 3.98 µM [quencher, side channel, partial curve] | – |
| Cc1cccc(Cc2cnc(N3C(=N)SC(c4ccccc4)C3=O)s2)c1 (configuration not stated) | inconclusive: 20 µM [inhibitor, partial curve] | – |
| COc1ccc2c(c1OC)CN(C)CCc1cc3c(cc1C(=O)C2)OCO3 | – | inactive: -24.2% |
| O=C(O)c1ccccc1NCN1C(=O)C2CC=C(Cl)CC2C1=O (configuration not stated) | inconclusive: 22.4 µM [inhibitor, partial curve, poor fit] | – |
| O=C(O)c1ccccc1C(=O)Nc1ccc(-c2csc(-c3ccccc3)n2)cc1 | inconclusive: 22.4 µM [quencher, side channel, partial curve] | – |

| Compound | Potency | FP activity change, negative = inhibition |
| --- | --- | --- |
| O=C(Nc1nc(-c2ccccn2)cs1)c1cc2ccccc2o1 | inconclusive: 39.8 µM [quencher, side channel, single point] | – |
| COc1ccc(-c2[nH]ncc2CN(C)CCc2c(C)n[nH]c2C)c(F)c1 | – | inactive: 0.669% |
| c1ccc(Oc2ccc(-c3ccnc4nc(N5CCOCC5)nn34)cc2)cc1 | inconclusive: 39.8 µM [inhibitor, partial curve] | – |
| O=C(O)c1cccc(NC(=O)c2ccc3c(c2)C(=O)N(CC2CCCO2)C3=O)c1 (configuration not stated) | – | inactive: 0.301% |
| CCn1c(CSc2nnc(-c3cccnc3)n2-c2ccccc2C)nc2cc(C(=O)O)ccc21 | inconclusive: 14.1 µM [fluorescent, side channel, partial curve] | – |
| CCS(=O)(=O)c1ccc2oc(Nc3ccc(C(C)C)cc3)nc2c1 | inconclusive: 12.6 µM [quencher, side channel, partial curve] | – |
| CC(=O)c1cn(CC(=O)Nc2ccccc2C)c2ccccc12 | inconclusive: 39.8 µM [fluorescent, side channel, single point] | – |
| CCOCCCNCc1cccc(OC)c1 | inconclusive: 6.31 µM [inhibitor, partial curve] | – |
| c1ccc(-c2noc(CSc3nnc(Cc4cccs4)n3-c3ccccc3)n2)cc1 | inconclusive: 28.2 µM [fluorescent, side channel, single point] | – |
| COC(=O)c1cc(OC)c(OC)cc1NC(=O)CCC1CCCC1 | inconclusive: 22.4 µM [fluorescent, side channel, single point] | – |
| Cc1noc(C)c1CN(C(=S)NC1CC2CCC1C2)c1ccccc1 (configuration not stated) | inconclusive: 5.62 µM [fluorescent, side channel, partial curve] | – |
| N[C@H](CSCc1ccccc1)C(=O)Nc1ccc([N+](=O)[O-])cc1 | inconclusive: 25.1 µM [quencher, side channel, partial curve] | – |
| COc1ccc(Cl)cc1NC(=O)c1cnccn1 | inconclusive: 28.2 µM [quencher, side channel, single point] | – |
| Cc1cccc(Nc2nc3ccccc3n3nnnc23)c1 | inconclusive: 35.5 µM [inhibitor, single point] | – |
| N#Cc1c(N2CCCCC2)nc(N)c2c(N)nc3c(c12)CC(c1ccccc1)O3 (configuration not stated) | – | inactive: 19.9% |
| CCOC(=O)C1CCN(S(=O)(=O)c2ccc(C(C)=O)cc2)CC1 | – | inactive: 0.516% |
| COc1ccc(Nc2cccc(Cl)c2)c(C(=O)O)c1 | inconclusive: 14.1 µM [quencher, side channel, partial curve] | – |
| COC(=O)[C@H](COC(C)(C)C)NC(=O)O[C@@H]1Cc2cc(Br)ccc2O[C@H]1c1cccc(OC)c1 | inconclusive: 3.16 µM [inhibitor, full curve] | – |
| CC(=O)/C(N=Nc1cc(C)ccc1O)=C(\C)O | inconclusive: 25.1 µM [quencher, side channel, partial curve] | – |

| Compound | Potency | FP activity change, negative = inhibition |
| --- | --- | --- |
| COc1cc(OC)cc(C(=O)NCC(=O)OCC(=O)c2ccc3c(c2)-c2ccccc2C3)c1 | inconclusive: 28.2 µM [inhibitor, partial curve, poor fit] | – |
| COc1ccc(CCNC(=O)CN2C(=O)C3(OCCCO3)c3ccccc32)cc1OC | – | inactive: 15.7% |
| COC(=O)[C@H](COC(C)(C)C)NC(=O)O[C@@H]1Cc2cc(OC)ccc2O[C@H]1c1cccc(OC)c1 | – | inactive: -10.1% |
| Cc1cccc2sc(NNC(=O)c3ccc(S(=O)(=O)N4CC(C)CC(C)C4)cc3)nc12 (configuration not stated) | inconclusive: 22.4 µM [quencher, side channel, partial curve] | – |
| C=CCn1c(C)cc(C(=O)Cn2c(C(C)O)nc3ccccc32)c1C (configuration not stated) | inconclusive: 12.6 µM [inhibitor, partial curve] | – |
| O=C(O)c1cc(N=Nc2ccc(-c3ccc(N=Nc4ccc(O)c(C(=O)O)c4)cc3)cc2)ccc1O | inconclusive: 1.78 µM [quencher, side channel, full curve] | – |
| Cc1ccc(C(=O)/C=C/C(=O)c2ccc(C)cc2)cc1 | inconclusive: 2.24 µM [fluorescent, side channel, partial curve] | – |
| COc1ccccc1N(C)S(=O)(=O)c1ccc(C(=O)OCC(=O)c2c[nH]c3ccccc23)cc1 | inconclusive: 5.01 µM [quencher, side channel, full curve] | – |
| O=C(Nc1ccc(F)cc1)Nc1ccc(N2CCCC2)c(S(=O)(=O)Nc2ccccc2Cl)c1 | inconclusive: 3.55 µM [quencher, side channel, full curve] | – |
| CCOC(=O)c1ccc(NC(=O)N2CCN(C(=O)c3ccco3)CC2)cc1 | – | inactive: -0.91% |
| O=C(c1ccccc1)N1CCN(c2ccc(NCc3ccc4c(c3)OCO4)cc2)CC1 | inconclusive: 39.8 µM [inhibitor, partial curve, poor fit] | – |
| O=C(/C=C/c1ccc(F)cc1)N1CCCc2ccccc21 | inconclusive: 25.1 µM [fluorescent, side channel, partial curve] | – |
| COc1ccc(C(=O)Nc2ccc(S(=O)(=O)NC(C)(C)C)cc2)cc1[N+](=O)[O-] | inconclusive: 25.1 µM [quencher, side channel, partial curve] | – |
| Cc1nc(NC(=O)c2ccccc2)sc1Cc1ccc2c(c1)OCO2 | inconclusive: 14.1 µM [quencher, side channel, partial curve] | – |
| CC1CCN(S(=O)(=O)c2cn(CC(=O)N3CC(C)CC(C)C3)c(=O)c3ccccc23)CC1 (configuration not stated) | inconclusive: 4.47 µM [fluorescent, side channel, full curve] | – |
| O=C(Nc1ccc(S(=O)(=O)N2CCOCC2)cc1)c1ccc(Cl)s1 | inconclusive: 10 µM [quencher, side channel, partial curve] | – |
| O=C(CCCn1c(SCc2ccccc2F)nc2ccccc2c1=O)NCC1CCCO1 (configuration not stated) | inconclusive: 7.94 µM [fluorescent, side channel, full curve] | – |
| COc1ccccc1CCNC(=O)C(=O)NCC1OCCN1S(=O)(=O)c1ccc([N+](=O)[O-])cc1 (configuration not stated) | inconclusive: 8.91 µM [quencher, side channel, partial curve] | – |
| O=C(CCCn1c(=O)c2ccccc2n(Cc2cccc(F)c2)c1=O)NC1CCN(Cc2ccccc2)CC1 | inconclusive: 3.55 µM [fluorescent, side channel, full curve] | – |
